Measurements taken from PubChem BioAssay AID1645882 (National Center for Advancing Translational Sciences (NCATS), 2021).
Several values for one entry are separate records, joined by “and”; a condition that tells them apart may be missing. Equal entries are not always repeated. About 120 (0.75%) of roughly 16,000 compounds were called active. Another 4% or so got no clear call; they are omitted. Calls come from the whole dose curve; as a rule, active = well fitted inhibition curve with a large enough effect; inconclusive = small, poorly fitted or top-dose-only effect; inactive = no such curve, though single readings can be large or run the other way. Some of the results follow. A structure can be active in one record and inactive in another.

Target: Rap guanine nucleotide exchange factor 3 (Homo sapiens) (UniProt O95398)
UniProt O95398, sequence (O95398 whole entry, looked up): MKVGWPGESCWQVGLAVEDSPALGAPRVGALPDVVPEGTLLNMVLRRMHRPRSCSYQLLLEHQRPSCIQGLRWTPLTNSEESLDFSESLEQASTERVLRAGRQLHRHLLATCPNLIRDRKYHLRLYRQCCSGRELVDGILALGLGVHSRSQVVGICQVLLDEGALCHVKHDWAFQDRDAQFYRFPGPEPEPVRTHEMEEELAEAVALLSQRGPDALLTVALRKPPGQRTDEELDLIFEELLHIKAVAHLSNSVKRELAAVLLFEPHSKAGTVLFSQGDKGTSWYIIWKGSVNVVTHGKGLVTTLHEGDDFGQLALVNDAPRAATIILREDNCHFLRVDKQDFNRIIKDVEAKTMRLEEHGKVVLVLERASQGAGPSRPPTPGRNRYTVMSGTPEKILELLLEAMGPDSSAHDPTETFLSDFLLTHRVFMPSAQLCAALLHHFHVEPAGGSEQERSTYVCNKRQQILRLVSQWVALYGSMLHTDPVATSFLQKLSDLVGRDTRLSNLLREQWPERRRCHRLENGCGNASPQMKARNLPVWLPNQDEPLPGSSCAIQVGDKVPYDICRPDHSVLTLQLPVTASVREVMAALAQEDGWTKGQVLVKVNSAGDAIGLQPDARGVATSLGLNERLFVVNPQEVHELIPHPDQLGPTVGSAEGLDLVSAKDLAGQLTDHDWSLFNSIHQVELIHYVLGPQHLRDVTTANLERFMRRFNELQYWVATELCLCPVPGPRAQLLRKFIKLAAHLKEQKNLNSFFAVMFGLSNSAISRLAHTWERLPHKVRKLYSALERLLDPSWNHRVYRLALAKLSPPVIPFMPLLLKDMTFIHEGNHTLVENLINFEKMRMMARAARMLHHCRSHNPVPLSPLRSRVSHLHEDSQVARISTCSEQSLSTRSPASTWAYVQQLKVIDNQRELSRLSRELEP
Assay: Validation qHTS for antagonist of cAMP-regulated guanine nucleotide exchange factor 3 (EPAC1); note: nearly all actives have a fitted effect of over 75% in size;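 for activity change, negative = inhibition: plate controls were DMSO for no effect and ATA control for full effect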
Conditions: EPAC1 Rap1B-BODIPY-GDP exchange, fluorescence; series mostly up to 150 µM; activity change, negative = inhibition: at the top concentration
Outline: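 Nucleotide exchange followed as fluorescence loss when BODIPY-GDP leaves Rap1B (480 nm excitation, 540 nm emission), read at 5 min intervals over 30 min. Reaction: 100 nM EPAC1, 250 nM RAP1B-BODIPY-GDP, 50 uM GDP; ATA and DMSO define normalization.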
Potency is the fitted concentration of half-maximal effect.

| SMILES | activity change, negative = inhibition | Potency |
| --- | --- | --- |
| O=c1[nH]cnc2c1ncn2C1CC(O)C(CO)O1 (stereo unspecified) | inactive: 16.4% | – |
| c1cn(-c2cc(-c3ccc4c(c3)OCO4)ncn2)cn1 | inactive: -4.82% | – |
| COc1ccc(-c2cc(=O)c3c(O)c(OC)c(O[C@@H]4OC(COC5OC(C)C(O)C(O)[C@@H]5O)C(O)C(O)C4O)cc3o2)cc1 (stereo partly specified) | inactive: 8.31% | – |
| CCN1CCC[C@H]1CNC(=O)c1c(O)c(Cl)cc(Cl)c1OC | inactive | – |
| COc1ccc(OC)c(-c2cc(Cl)c3c(c2)CC(CNC(=O)C(C)N2CCOCC2)O3)c1 (stereo unspecified) | inactive: 16.7% | – |
| O=C(c1ccco1)N1CCC2(CC1)CCN(c1ccc(-c3ccccc3)cc1)CC2 | inactive: 24.4% | – |
| Cc1ccccc1CN1Cc2cccc3c2[C@H](C=CC3)CC1=O | inactive: 10.8% | – |
| O=C(NCC1(N2CCOCC2)CCCC1)c1cnn(-c2nccc(-c3cccs3)n2)c1C1CC1 | inactive: 18% | – |
| Cn1c(=O)cnc2cnc(Oc3ccccc3)nc21 | inactive: -0.0023% | – |
| CCCCC[C@H](O)/C=C/[C@H]1[C@H](O)CC(=O)[C@@H]1CCCCCCC(=O)O | inactive | – |
| CC(=O)Nc1ccc(C(=O)O)cc1 | inactive: 0.746% | – |
| CCC(=O)NCCC1CCc2ccc3c(c21)CCO3 (stereo unspecified) | inactive: 4.42% | – |
| Oc1ccc(C2Oc3cc(O)cc(O)c3CC2O)cc1 (stereo unspecified) | inactive: 2.55% | – |
| COc1cccc(Cn2c(=O)cnc3cncnc32)c1 | inactive: -0.796% | – |
| COc1ccccc1OC(=O)Oc1ccccc1OC | inactive: 2.96% | – |
| O=C(O)c1cccnc1C(=O)O | inactive | – |
| O=C1CCC(=O)N1CO | inactive: 7.5% | – |
| CCCCN1CC[C@H]2C=CC[C@@H](C(=O)Nc3ccc(Cl)c(C(F)(F)F)c3)[C@H]2C1=O | inactive: -3.69% | – |
| COc1cccc(Cn2c(=O)c(C)nc3cnc(N4CCOCC4)nc32)c1 | inactive: -0.0576% | – |
| Cc1cccc(CNc2ncnc3ccc(-c4ccccc4C#N)cc23)c1 | inactive: 9.24% | – |
| CC(=C(CCOC(=O)C(C)C)SSC(CCOC(=O)C(C)C)=C(C)N(C=O)Cc1cnc(C)nc1N)N(C=O)Cc1cnc(C)nc1N | inactive: -6.32% | – |
| COc1cc(-c2ccc(C(F)(F)F)cn2)cc2c1OCCN(S(=O)(=O)C[C@]13CC[C@H](CC1=O)C3(C)C)C2 | inactive: 4.08% | – |
| O=C1OC2(c3ccccc31)c1cc(Br)c(O)c(Br)c1Oc1c2cc(Br)c(O)c1Br | inactive: -98.6% | – |
| c1ccc2oc(C3=NCCN3)cc2c1 | inactive: -5.72% | – |
| COC(=O)c1ccccc1-c1cc(C)cc2c1OC(CNC(=O)c1cc(C)n(C)n1)C2 (stereo unspecified) | inactive: 7.09% | – |
| CC/C(=C(\c1ccccc1)c1ccc(OCCN(C)C)cc1)c1ccccc1 | inactive | – |

| SMILES | activity change, negative = inhibition | Potency |
| --- | --- | --- |
| NCc1ccc(S(N)(=O)=O)cc1 | inactive | – |
| O=C1/C(=C\c2cccs2)CCC/C1=C\c1cccs1 | inactive: 16.8% | – |
| Cc1cc[n+](CC(=O)c2ccc(F)cc2)c2ccccc12 | inactive: 18.6% | – |
| COCCNc1ccnc(-c2c(C)noc2C)n1 | inactive: 21.2% | – |
| CSc1ncccc1C(=O)NCC1Cc2cc(F)cc(-c3cncnc3)c2O1 (stereo unspecified) | inactive: 3.34% | – |
| COc1ccccc1CN1CCCC2(CCN(C(=O)c3cccc(F)c3)CC2)C1 | inactive: 17.3% | – |
| COc1ccc(-c2cn(Cc3ccc4c(c3)C(=O)c3ccccc3C4=O)nn2)cc1 | inactive: -6.21% | – |
| COCCn1c(=O)cnc2cnc(N3CCN(C)CC3)nc21 | inactive: -6.2% | – |
| CC(C)C[C@@H](CN=[N+]=[N-])N1CCN(CCc2ccccc2)CCC1=O | inactive: 8.21% | – |
| COc1ccc(CN2CCOc3ccc(C(O)c4cccnc4)cc3C2)c(F)c1 (stereo unspecified) | inactive: -9.79% | – |
| CN(C)Cc1ccccc1-c1nccc(Nc2ccc(F)cc2)n1 | inactive: 0.154% | – |
| COc1cc(=O)n2c(c1C(=O)NCc1ccco1)CCN(Cc1ccc(F)cc1Cl)CC2 | inactive: -4.96% | – |
| CC(C)(C)NCC(O)c1cc(O)cc(O)c1 (stereo unspecified) | inactive | – |
| NS(=O)(=O)c1cc2c(cc1Cl)NC(CC1CCCC1)NS2(=O)=O (stereo unspecified) | inactive: 12.6% [at 75.8 µM] | – |
| O=C(Nc1cc(C(=O)N2CCN(CCO)CC2)c2c(c1)ncn2C1CCCC1)c1ccccc1 | inactive: 6.01% | – |
| COc1ccc(NC(=O)N2CCCC3(CCN(C(=O)c4cnccn4)CC3)C2)cc1 | inactive: 15.5% | – |
| COc1ccc(Oc2ncc3nc(-c4cccs4)c(=O)n(Cc4cccs4)c3n2)cc1 | inactive: 9.41% | – |
| COC(=O)C1N[C@@H]([C@@H](NC(=O)COc2ccccc2)C(=O)NCc2ccccc2)SC1(C)C (stereo partly specified) | inactive: -3.25% | – |
| CC(CN1c2ccccc2Sc2ccc(S(=O)(=O)N(C)C)cc21)N(C)C (stereo unspecified) | inactive: 17.9% | – |
| Cc1nc(NCc2cnn(C)c2)sc1-c1ccn(-c2cccc(F)c2)n1 | inactive: 8.69% | – |
| CC[N+](CC)(CC)CCOc1cccc(OCC[N+](CC)(CC)CC)c1OCC[N+](CC)(CC)CC | inactive | – |
| O=C(O)C(O)[C@@](O)(Cc1ccc(O)cc1)C(=O)O (stereo partly specified) | inactive: 5.32% | – |
| CCC1CN(CCNC(=O)c2cc(C)nn2CC)Cc2cc(OC)ccc2O1 (stereo unspecified) | inactive: 2.62% | – |
| C=C(c1ccc(C(=O)O)cc1)c1cc2c(cc1C)C(C)(C)CCC2(C)C | inactive: -4.79% | – |
| O=C(c1cnccn1)N1CCC2(CCCN(c3ccc(-c4ccccc4)cc3)C2)CC1 | inactive: 3.07% | – |
| C#C[C@]1(O)CC[C@H]2[C@@H]3CCC4=C(CCC(=O)C4)[C@H]3CC[C@@]21C | inactive: 4.26% [at 75.8 µM] | – |

| SMILES | activity change, negative = inhibition | Potency |
| --- | --- | --- |
| C[C@@H]1[C@H](c2ccccc2)OCCS(=O)(=O)N1Cc1ccc(F)cc1 | inactive: -7.77% | – |
| COC(=O)C(N)Cc1ccc(Cl)cc1 (stereo unspecified) | inactive: -9.17% [at 75.8 µM] | – |
| CCC(C)c1ccc(O[C@@H]2O[C@H](CO)[C@@H](O)[C@H](O)[C@H]2NC(C)=O)cc1 (stereo partly specified) | inactive: 19.1% | – |
| O=c1c(-c2ccc(F)cc2)nc2cncnc2n1-c1ccccc1 | inactive: 8.81% | – |
| N[C@H](C(=O)O)[C@H]1C[C@@H]1C(=O)O | inactive | – |
| CCOC(=O)C1=C(C)NC(c2ccccc2)=C(C(=O)OCc2ccc([N+](=O)[O-])cc2)[C@@H]1C#Cc1ccccc1 | inactive: 4.77% | – |
| Cc1nc2cnc(Nc3ccccc3)nc2n(C[C@H]2CCCO2)c1=O | inactive: -10.3% | – |
| Cc1ccc2occ(CN3CCOc4ccc(C(C)(O)COc5ccccc5)cc4C3)c(=O)c2c1 (stereo unspecified) | inactive: -22.2% | – |
| C=C[C@@]1(C)CC(=O)[C@@]2(O)[C@@]3(C)[C@@H](O)CCC(C)(C)[C@@H]3[C@H](O)[C@H](OC(C)=O)[C@@]2(C)O1 | inactive: -3.87% | – |
| COc1ccc2[nH]cc(CCNc3ccnc(-c4c(C)noc4C)n3)c2c1 | inactive: -28.2% | – |
| OC(CN1CCCCC1)c1ccccc1 (stereo unspecified) | inactive: 17.4% | – |
| COc1ccc2cccc(N3CCN(CCNC(=O)c4ccc(F)cc4)CC3)c2c1 | inactive: 0.118% | – |
| O=C1CCC[C@@H]2Cc3nc4ccccc4cc3[C@@H]3CCN1[C@H]23 | inactive: -2.6% | – |
| CC[N+]1(CC(=O)c2ccc(Cl)cc2)CCCCC1 | inactive: 12.3% | – |
| Cc1ncc2c(c1CNC(=O)c1ccccc1F)CCN(C(=O)c1csc(-c3cccs3)n1)C2 | inactive: 10.5% | – |
| O=C(OCCOCCO)c1ccccc1Nc1cccc(C(F)(F)F)c1 | inactive: -8.99% [at 75.8 µM] | – |
| COCCn1c(=O)c(-c2cc(F)cc(F)c2)nc2cnc(Oc3ccc(OC)cc3)nc21 | inactive: 7.13% | – |
| Cc1ncc2c(c1CNC(=O)c1ccc3c(c1)OCO3)CCN(C(=O)c1scc3c1CCCC3)C2 | inactive: 15.5% | – |
| c1ccc(-c2onc(-c3ccco3)c2-c2ccc3c(c2)OCO3)cc1 | inactive: 8.27% | – |
| CC1=C(C/C=C(\C)CCC[C@H](C)CCC[C@H](C)CCCC(C)C)C(=O)c2ccccc2C1=O | inactive: 6.86% | – |
| O=C(O)c1cc2ccccc2c(Cc2c(O)c(C(=O)O)cc3ccccc23)c1O | – | active: 50.1 µM |
| CCC1OC(=O)C[C@@H](O)[C@H](C)[C@@H](O[C@@H]2O[C@H](C)C[C@H](N(C)C)[C@H]2O)[C@@H](CC=O)C[C@@H](C)C(=O)/C=C/[C@]2(C)OC2C1C (stereo partly specified) | inactive | – |
| O=C1[C@H]2[C@H](C=CC[C@H]2C(=O)N2CCOCC2)CCN1Cc1ccccc1 | inactive: 19.6% | – |
| CN(C)c1ccc(-c2ccc3ncnc(NCc4ccccc4)c3c2)cc1 | inactive: 22.3% | – |
| CCNc1ncc2nc(-c3cccs3)c(=O)n(-c3ccccc3)c2n1 | inactive: 35.7% | – |
| COc1ccc2c(=O)c(-c3ccccc3)coc2c1 | inactive: 9.41% | – |

| SMILES | activity change, negative = inhibition | Potency |
| --- | --- | --- |
| CC(=O)NCCNc1ncnc2ccc(-c3ccccc3Cl)cc12 | inactive: 19.1% | – |
| O=C(NCCc1ccccn1)c1cnn(-c2ncc3c(n2)-c2ccccc2CC3)c1C1CC1 | inactive: -4.96% | – |
| COC(=O)[C@@H]1[C@H]2C[C@H]3c4[nH]c5ccccc5c4CCN3C[C@H]2CC[C@@H]1O | inactive: 19.6% | – |
| COC(=O)CC1C(C)(C)C(OC(C)=O)[C@@]2(O)C=C3C4CC(=O)OC(c5ccoc5)[C@]4(C)CCC3[C@@]1(C)C2=O (stereo partly specified) | inactive: 16.7% | – |
| CN=C(N)NC(=O)Nc1c(C)cccc1C | inactive: 8.5% | – |
| CC(=O)c1ccc(-c2cc(F)cc3c2OC(CNC(=O)Cc2cn4ccsc4n2)C3)s1 (stereo unspecified) | inactive: 16.1% | – |
| COc1ccc(Oc2ncc3nc(-c4ccc(Cl)cc4)c(=O)n(CCC#N)c3n2)cc1 | inactive: 9.79% | – |
| CC1=CC(=O)[C@@H]2C[C@H]1C2(C)C | inactive: 17.9% | – |
| O=C(c1cccc(F)c1)N1CCC2(CCCN(c3cccc(-c4ccccc4)c3)C2)CC1 | inactive: -4.45% | – |
| CC(=O)Nc1cccc(O)c1 | inactive: 225% | – |
| Cc1cnc(C(=O)O)c[n+]1[O-] | inactive | – |
| C[C@@]12CCC[C@H]1C1CC[C@H]3C[C@H](O)CC[C@]3(C)C1CC2 (stereo partly specified) | inactive: 34.3% | – |
| O=C(Nc1ccccc1)[C@@H]1CC=C[C@@H]2CCN(Cc3ccccc3)C(=O)[C@@H]21 | inactive: 13.4% | – |
| COc1ccc2c(c1)C[C@]1(C)c3ccccc3C(=O)N(Cc3ccccc3)[C@H]21 | inactive: -30% | – |
| O=c1c(O)c(-c2ccc(O)c(O)c2)oc2cc(O)cc(O)c12 | – | inactive and active: 79.4 µM |
| O=C1CCC[C@@H]2Cc3nc4ccc(O)cc4cc3[C@@H]3CCN1[C@H]23 | inactive: 18.7% | – |
| COc1cc(OC)c2c(=O)c(-c3ccccc3)c(C)oc2c1OC | inactive: 5.94% | – |
| CC(CCC(=O)O)C1CCC2C3CC[C@H]4CC(O)CC[C@@]4(C)C3C=C[C@]12C (stereo partly specified) | inactive: -25.3% | – |
| O=C(c1cnccn1)N1CCC[C@@]2(CCN(Cc3ccncc3)C2)C1 | inactive: 9.04% | – |
| COc1ccc(CN2CCN(C(c3ccc(F)cc3)c3ccc(F)cc3)CC2)c(OC)c1OC | inactive: -22.1% | – |
| CC(C)Cc1ccc(C(C)C(=O)O)cc1 (stereo unspecified) | inactive | – |
| CC(C)C[C@@H](CN=[N+]=[N-])N1CCN(CC(C)C)CCC1=O | inactive: 5.97% | – |
| COc1cc2c(cc1OC)C(=O)N(C)CC2 | inactive: 14.4% | – |
